{
  "source": "patent US10299477B2",
  "about": "(priority 2015, dated 2019)",
  "data": [
    {"tested_on": "Colletotrichum orbiculare", "conditions": "in vivo", "values": [
      {"smiles": "Cc1ccccc1-c1ccc(=O)n(C)c1-c1c(F)cccc1F", "note": "[Compound 180]", "Test H control value": "H (key: H shows more than 50% of control values; L shows 50% or less of control values)"},
      {"smiles": "Cc1ccccc1-c1cc(Cl)c(=O)n(C)c1-c1c(F)cccc1F", "note": "[Compound 181]", "Test H control value": "L (key: H shows more than 50% of control values; L shows 50% or less of control values)"},
      {"smiles": "Cc1ccccc1-c1cc(Br)c(=O)n(C)c1-c1c(F)cccc1F", "note": "[Compound 182]", "Test H control value": "L (key: H shows more than 50% of control values; L shows 50% or less of control values)"},
      {"smiles": "COc1cc(OC)cc(-c2ccc(=O)n(C)c2-c2c(F)cccc2Br)c1", "note": "[Compound 183]", "Test H control value": "L (key: H shows more than 50% of control values; L shows 50% or less of control values)"},
      {"smiles": "COc1cc(OC)c(Br)c(-c2ccc(=O)n(C)c2-c2c(F)cccc2Br)c1", "note": "[Compound 184]", "Test H control value": "H (key: H shows more than 50% of control values; L shows 50% or less of control values)"},
      {"smiles": "Cn1c(-c2c(F)cccc2F)c(-c2c(F)c(F)c(F)c(F)c2F)ccc1=O", "note": "[Compound 373]", "Test H (control value class)": "L (key: H shows more than 50% of control values; L shows 50% or less of control values)"},
      {"smiles": "Cn1c(-c2c(F)cccc2F)c(-c2c(F)c(F)c(F)c(F)c2F)cc(Cl)c1=O", "note": "[Compound 374]", "Test H (control value class)": "H (key: H shows more than 50% of control values; L shows 50% or less of control values)"},
      {"smiles": "CCn1c(-c2c(F)cccc2F)c(-c2cc(OC)ccc2Cl)cc(SC)c1=O", "note": "[Compound 375]", "Test H (control value class)": "H (key: H shows more than 50% of control values; L shows 50% or less of control values)"},
      {"smiles": "CCOc1ccc(Cl)c(-c2cc(Cl)c(=O)n(CC)c2-c2c(F)cccc2F)c1", "note": "[Compound 376]", "Test H (control value class)": "H (key: H shows more than 50% of control values; L shows 50% or less of control values)"},
      {"smiles": "COc1cc(OC)c(Cl)c(-c2ccc(=O)n(CC(F)(F)F)c2-c2c(F)cc(F)cc2F)c1", "note": "[Compound 377]", "Test H (control value class)": "H (key: H shows more than 50% of control values; L shows 50% or less of control values)"},
      {"smiles": "COc1cc(OC)c(Cl)c(-c2ccc(=O)n(/C=C/F)c2-c2c(F)cc(F)cc2F)c1", "note": "[Compound 379]", "Test H (control value class)": "H (key: H shows more than 50% of control values; L shows 50% or less of control values)"},
      {"smiles": "COc1cc(OC)c(Cl)c(-c2ccc(=O)n(/C=C\\F)c2-c2c(F)cc(F)cc2F)c1", "note": "[Compound 380]", "Test H (control value class)": "H (key: H shows more than 50% of control values; L shows 50% or less of control values)"},
      {"smiles": "CCn1c(-c2c(F)cc(F)cc2F)c(-c2cc(F)ccc2Cl)cc(Br)c1=O", "note": "[Compound 381, 3-bromo-5-(2-chloro-5-fluorophenyl)-1-ethyl-6-(2,4,6-trifluorophenyl)pyridine-2(1H)-one]", "Test H (control value class)": "H (key: H shows more than 50% of control values; L shows 50% or less of control values)"},
      {"smiles": "O=c1ccc(-c2c(F)c(F)c(F)c(F)c2F)c(-c2c(F)cccc2F)n1CC(F)F", "note": "[Compound 383]", "Test H (control value class)": "L (key: H shows more than 50% of control values; L shows 50% or less of control values)"},
      {"smiles": "O=c1c(Cl)cc(-c2c(F)c(F)c(F)c(F)c2F)c(-c2c(F)cccc2F)n1CC(F)F", "note": "[Compound 384]", "Test H (control value class)": "L (key: H shows more than 50% of control values; L shows 50% or less of control values)"},
      {"smiles": "CCn1c(-c2c(F)cccc2F)c(-c2c(F)cccc2Cl)ccc1=O", "note": "[Compound 385]", "Test H (control value class)": "H (key: H shows more than 50% of control values; L shows 50% or less of control values)"},
      {"smiles": "CCn1c(-c2c(F)cc(OC)cc2F)c(-c2cc(F)ccc2Cl)cc(Cl)c1=O", "note": "[Compound 386]", "Test H (control value class)": "H (key: H shows more than 50% of control values; L shows 50% or less of control values)"},
      {"smiles": "CCn1c(-c2c(F)cccc2F)c(-c2cc(OC)ccc2Cl)cc(S(C)(=O)=O)c1=O", "note": "[Compound 387]", "Test H (control value class)": "L (key: H shows more than 50% of control values; L shows 50% or less of control values)"},
      {"smiles": "O=C1CCC(c2cc(F)ccc2Cl)=C(c2c(F)cccc2F)N1CC(F)F", "note": "[Compound 388]", "Test H (control value class)": "H (key: H shows more than 50% of control values; L shows 50% or less of control values)"},
      {"smiles": "CCCN1C(=O)CCC(c2cc(OC)ccc2Cl)=C1c1c(F)cccc1F", "note": "[Compound 389]", "Test H (control value class)": "L (key: H shows more than 50% of control values; L shows 50% or less of control values)"},
      {"smiles": "CCCCN1C(=O)CCC(c2cc(OC)ccc2Cl)=C1c1c(F)cccc1F", "note": "[Compound 390]", "Test H (control value class)": "L (key: H shows more than 50% of control values; L shows 50% or less of control values)"},
      {"smiles": "O=c1ccc(-c2cc(F)ccc2Cl)c(-c2c(F)cccc2F)n1CC(F)F", "note": "[Compound 391]", "Test H (control value class)": "H (key: H shows more than 50% of control values; L shows 50% or less of control values)"},
      {"smiles": "O=c1c(Br)cc(-c2cc(F)ccc2Cl)c(-c2c(F)cccc2F)n1CC(F)F", "note": "[Compound 393]", "Test H (control value class)": "H (key: H shows more than 50% of control values; L shows 50% or less of control values)"},
      {"smiles": "CCCCn1c(-c2c(F)cccc2F)c(-c2cc(OC)ccc2Cl)ccc1=O", "note": "[Compound 394]", "Test H (control value class)": "L (key: H shows more than 50% of control values; L shows 50% or less of control values)"},
      {"smiles": "CCCCn1c(-c2c(F)cccc2F)c(-c2cc(OC)ccc2Cl)cc(Cl)c1=O", "note": "[Compound 395]", "Test H (control value class)": "L (key: H shows more than 50% of control values; L shows 50% or less of control values)"},
      {"smiles": "CCCCn1c(-c2c(F)cccc2F)c(-c2cc(OC)ccc2Cl)cc(Br)c1=O", "note": "[Compound 396]", "Test H (control value class)": "L (key: H shows more than 50% of control values; L shows 50% or less of control values)"},
      {"smiles": "CCn1c(-c2c(F)cccc2F)c(-c2c(F)cccc2Cl)cc(Cl)c1=O", "note": "[Compound 397]", "Test H (control value class)": "H (key: H shows more than 50% of control values; L shows 50% or less of control values)"},
      {"smiles": "Cn1c(-c2c(F)cccc2F)c(-c2c(F)cccc2Cl)ccc1=O", "note": "[Compound 398]", "Test H (control value class)": "H (key: H shows more than 50% of control values; L shows 50% or less of control values)"},
      {"smiles": "CCCn1c(-c2c(F)cccc2F)c(-c2cc(OC)ccc2Cl)ccc1=O", "note": "[Compound 399]", "Test H (control value class)": "H (key: H shows more than 50% of control values; L shows 50% or less of control values)"},
      {"smiles": "CCCn1c(-c2c(F)cccc2F)c(-c2cc(OC)ccc2Cl)cc(Cl)c1=O", "note": "[Compound 400]", "Test H (control value class)": "H (key: H shows more than 50% of control values; L shows 50% or less of control values)"},
      {"smiles": "CCCn1c(-c2c(F)cccc2F)c(-c2cc(OC)ccc2Cl)cc(Br)c1=O", "note": "[Compound 401]", "Test H (control value class)": "H (key: H shows more than 50% of control values; L shows 50% or less of control values)"},
      {"smiles": "COCn1c(-c2c(F)cccc2F)c(-c2cc(OC)ccc2Cl)ccc1=O", "note": "[Compound 402]", "Test H (control value class)": "H (key: H shows more than 50% of control values; L shows 50% or less of control values)"},
      {"smiles": "CCn1c(-c2c(F)cc(F)cc2F)c(-c2cc(OC)ccc2Cl)ccc1=O", "note": "[Compound 403]", "Test H (control value class)": "H (key: H shows more than 50% of control values; L shows 50% or less of control values)"},
      {"smiles": "CCn1c(-c2c(F)cc(F)cc2F)c(-c2cc(OC)ccc2Cl)cc(Cl)c1=O", "note": "[Compound 404]", "Test H (control value class)": "H (key: H shows more than 50% of control values; L shows 50% or less of control values)"},
      {"smiles": "Cn1c(-c2c(F)cccc2F)c(-c2c(F)cccc2Cl)cc(Cl)c1=O", "note": "[Compound 405]", "Test H (control value class)": "H (key: H shows more than 50% of control values; L shows 50% or less of control values)"},
      {"smiles": "O=c1ccc(-c2c(F)cccc2Cl)c(-c2c(F)cccc2F)n1CC(F)F", "note": "[Compound 406]", "Test H (control value class)": "H (key: H shows more than 50% of control values; L shows 50% or less of control values)"},
      {"smiles": "O=c1c(Cl)cc(-c2c(F)cccc2Cl)c(-c2c(F)cccc2F)n1CC(F)F", "note": "[Compound 407]", "Test H (control value class)": "H (key: H shows more than 50% of control values; L shows 50% or less of control values)"},
      {"smiles": "CCn1c(-c2c(F)cccc2F)c(-c2ccc(Cl)cc2F)ccc1=O", "note": "[Compound 408]", "Test H (control value class)": "L (key: H shows more than 50% of control values; L shows 50% or less of control values)"},
      {"smiles": "COc1ccc(Cl)c(-c2ccc(=O)n(CC(F)(F)F)c2-c2c(F)cccc2F)c1", "note": "[Compound 409]", "Test H (control value class)": "L (key: H shows more than 50% of control values; L shows 50% or less of control values)"},
      {"smiles": "COc1ccc(Cl)c(-c2cc(Cl)c(=O)n(CC(F)(F)F)c2-c2c(F)cccc2F)c1", "note": "[Compound 410]", "Test H (control value class)": "H (key: H shows more than 50% of control values; L shows 50% or less of control values)"},
      {"smiles": "COc1ccc(Cl)c(-c2cc(Cl)c(=O)n(C(C)C)c2-c2c(F)cccc2F)c1", "note": "[Compound 413]", "Test H (control value class)": "H (key: H shows more than 50% of control values; L shows 50% or less of control values)"},
      {"smiles": "COc1ccc(Cl)c(-c2ccc(=O)n(C)c2-c2c(F)cc(F)cc2F)c1", "note": "[Compound 415]", "Test H (control value class)": "H (key: H shows more than 50% of control values; L shows 50% or less of control values)"},
      {"smiles": "COc1ccc(Cl)c(-c2cc(Cl)c(=O)n(C)c2-c2c(F)cc(F)cc2F)c1", "note": "[Compound 416]", "Test H (control value class)": "H (key: H shows more than 50% of control values; L shows 50% or less of control values)"},
      {"smiles": "CCn1c(-c2c(F)cccc2F)c(-c2ccc(Cl)cc2F)cc(Cl)c1=O", "note": "[Compound 417]", "Test H (control value class)": "L (key: H shows more than 50% of control values; L shows 50% or less of control values)"},
      {"smiles": "Cn1c(-c2c(F)cccc2F)c(-c2ccc(Cl)cc2F)ccc1=O", "note": "[Compound 418]", "Test H (control value class)": "H (key: H shows more than 50% of control values; L shows 50% or less of control values)"},
      {"smiles": "Cn1c(-c2c(F)cccc2F)c(-c2ccc(Cl)cc2F)cc(Cl)c1=O", "note": "[Compound 419]", "Test H (control value class)": "L (key: H shows more than 50% of control values; L shows 50% or less of control values)"},
      {"smiles": "CCn1c(-c2c(F)cc(F)cc2F)c(-c2ccccc2Cl)ccc1=O", "note": "[Compound 420]", "Test H (control value class)": "H (key: H shows more than 50% of control values; L shows 50% or less of control values)"},
      {"smiles": "CCn1c(-c2c(F)cc(F)cc2F)c(-c2ccccc2Cl)cc(Cl)c1=O", "note": "[Compound 421]", "Test H (control value class)": "H (key: H shows more than 50% of control values; L shows 50% or less of control values)"},
      {"smiles": "COc1ccc(Cl)c(-c2ccc(=O)n(N)c2-c2c(F)cccc2F)c1", "note": "[Compound 422]", "Test H (control value class)": "L (key: H shows more than 50% of control values; L shows 50% or less of control values)"},
      {"smiles": "COc1ccc(Cl)c(-c2cc(Cl)c(=O)n(N)c2-c2c(F)cccc2F)c1", "note": "[Compound 423]", "Test H (control value class)": "H (key: H shows more than 50% of control values; L shows 50% or less of control values)"}
    ]}
  ]
}
